# From PMC4336329 (PLoS ONE, 2015)
# Among all 310,000 compounds or so, about 14,000 (4.5%) showed an effect of 50% or more. Effects have a minus sign here. This is one part of the list.
# Molecular target: human ether-à-go-go-related gene (hERG) potassium channel (human, UniProt Q12809)
# Test: primary screen, population patch clamp on CHO cells stably expressing hERG
# 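Note: peak tail current of the secondary pulse compared with the same well before compound.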
# Sequence of human ether-à-go-go-related gene (hERG) potassium channel (Q12809 whole entry, looked up): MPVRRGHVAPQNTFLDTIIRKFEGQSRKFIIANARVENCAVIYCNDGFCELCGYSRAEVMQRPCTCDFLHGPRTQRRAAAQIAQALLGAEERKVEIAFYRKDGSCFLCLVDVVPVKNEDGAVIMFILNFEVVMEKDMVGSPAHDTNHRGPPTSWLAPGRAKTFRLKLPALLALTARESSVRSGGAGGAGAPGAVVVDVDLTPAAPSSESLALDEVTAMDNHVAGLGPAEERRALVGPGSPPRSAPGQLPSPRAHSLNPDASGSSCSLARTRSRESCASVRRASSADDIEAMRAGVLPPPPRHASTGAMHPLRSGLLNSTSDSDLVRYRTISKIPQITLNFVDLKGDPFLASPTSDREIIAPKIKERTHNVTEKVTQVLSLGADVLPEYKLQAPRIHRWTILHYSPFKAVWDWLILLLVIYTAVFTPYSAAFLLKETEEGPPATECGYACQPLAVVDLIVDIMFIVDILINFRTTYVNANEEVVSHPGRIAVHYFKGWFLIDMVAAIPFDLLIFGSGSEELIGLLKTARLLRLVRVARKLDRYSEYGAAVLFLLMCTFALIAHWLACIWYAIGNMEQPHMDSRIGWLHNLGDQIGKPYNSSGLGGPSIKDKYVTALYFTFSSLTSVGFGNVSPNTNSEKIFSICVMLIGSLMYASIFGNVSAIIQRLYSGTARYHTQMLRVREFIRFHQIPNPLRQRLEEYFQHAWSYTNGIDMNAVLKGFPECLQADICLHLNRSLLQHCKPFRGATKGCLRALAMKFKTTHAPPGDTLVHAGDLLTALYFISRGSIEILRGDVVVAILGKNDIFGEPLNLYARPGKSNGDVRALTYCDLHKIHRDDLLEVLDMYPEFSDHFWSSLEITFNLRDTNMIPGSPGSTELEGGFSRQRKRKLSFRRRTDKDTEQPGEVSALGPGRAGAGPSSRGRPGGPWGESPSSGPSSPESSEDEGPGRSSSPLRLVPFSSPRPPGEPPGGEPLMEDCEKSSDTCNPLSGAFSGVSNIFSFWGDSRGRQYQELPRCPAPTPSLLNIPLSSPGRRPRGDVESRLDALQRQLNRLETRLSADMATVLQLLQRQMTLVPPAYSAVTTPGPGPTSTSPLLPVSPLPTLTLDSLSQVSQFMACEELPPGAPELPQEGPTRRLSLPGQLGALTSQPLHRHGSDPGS
row,Compound,"hERG current change (%, negative = inhibition) at 10uM [%]"
1,NC(=O)c1ccsc1NC(=O)COC(=O)C1CCCN1C(=O)c1cccs1 (stereo not shown),-63
2,Cc1cc(C)c(S(=O)(=O)Nc2ccc(N3CCOCC3)cc2)c(C)c1,10.3
3,Cc1cc(=O)n2nc(N3CCCC(C(=O)N4CCc5ccccc54)C3)sc2n1 (stereo not shown),-11.3
4,Clc1ccccc1C1=Nn2c(nnc2-c2ccncc2)SC1,1.59
5,CC1CCN(C(=O)CSc2nnc(Cn3c(=O)sc4ccccc43)n2C)CC1,-10.3
6,COc1ccc(Oc2cccc(Cl)c2CNC(=O)CCCC(=O)O)cc1,6.59
7,Brc1cccc(OCCSc2ncccn2)c1,18.4
8,COc1ccc(C(=O)Nc2nc(N3C(=O)c4ccccc4C3=O)n(-c3ccccc3)n2)cc1,-12.8
9,Cc1c(C(=O)NCCCN2CCOCC2)sc2nc(-c3ccccc3)cn12,-48.5
10,C/C(=N\NC(=O)c1ccccc1O)C1CC1,-62.2
11,Cc1ccc(SCC(=O)NCc2cccnc2)cc1,0.576
12,CCn1cc(Br)c(C(=O)Nc2ccc(F)cc2F)n1,0.281
13,O=C(CCC(=O)N1C[C@H]2C[C@@H](C1)c1cccc(=O)n1C2)NCc1ccccc1,5.03
14,O=C(COC(=O)C12CC3CC(CC(Br)(C3)C1)C2)NNC(=O)c1ccccc1,-10.8
15,O=C(COc1ccc(Cl)cc1)NCCNc1ccc([N+](=O)[O-])cc1,-40.6
16,O=C(NC(Nc1nc2ccc([N+](=O)[O-])cc2s1)(C(F)(F)F)C(F)(F)F)c1ccccc1,-6.48
17,CC(C)Cc1cc(C(=O)Nc2ccc(Br)cc2)no1,8.77
18,COc1cccc(-c2nc(CS(=O)(=O)CC(=O)NCCCN3CCN(C)CC3)c(C)o2)c1,3.5
19,Cc1ccc(OS(=O)(=O)c2c(C)nn(C)c2Cl)c(C)c1,5.59
20,COc1cc(NC(=O)CCCSc2nc(-c3ccco3)cc(C(F)(F)F)n2)cc(OC)c1OC,5.83
21,CC(=O)N1CCN(CC(=O)Nc2ccc([N+](=O)[O-])cc2Br)CC1,-75.3
22,C=CCn1c(SCC(=O)NC2CCCC2)nc2scc(-c3ccco3)c2c1=O,9.66
23,CCC(C)NC(=O)CS(=O)Cc1nc(-c2ccccc2C)oc1C (stereo not shown),12.2
24,Cc1cccc(OCC(=O)NC(=S)Nc2ccccc2N2CCOCC2)c1C,-0.0458
25,Cc1[nH]c2ccccc2c1C(=O)C(=O)N1CC2CC(C1)c1cccc(=O)n1C2 (stereo not shown),-6.49
26,O=C(O/N=C\c1ccc(N2CCCCC2)c([N+](=O)[O-])c1)c1c(F)cccc1F,14.6
27,Brc1c(CSc2nncc3ccccc23)nc2ccccn12,-12.2
28,Cc1cc(C)nc(SCc2cc(=O)c(OC(=O)c3ccc(Br)o3)co2)n1,-4.35

row,Compound,"hERG current change (%, negative = inhibition) at 10uM [%]"
1,O=C(CCNS(=O)(=O)c1ccccc1C(F)(F)F)N1CCN(C(c2ccccc2)c2ccccc2)CC1,1.61
2,Cc1ccc(SCCNC(=S)Nc2ccc(C)c(C)c2)cc1,11.9
3,O=C(Cc1ccccc1)N1CCN(c2ccc([N+](=O)[O-])cc2)CC1,-55.2
4,CCC(C)Oc1nc2c(c(=O)n(C)c(=O)n2C)n1C (stereo not shown),10.1
5,Cc1nn(Cc2ccc(Cl)cc2)c(C)c1NC(=O)c1cc(C(C)C)on1,5.88
6,COc1cc2cc(C(=O)N3CCC(Cc4ccccc4)CC3)[nH]c2cc1OC,17.4
7,Cc1cc(C)c(S(=O)(=O)Cc2ccccc2)c(OC(C)C)n1,-18.4
8,O=C(O)CSc1nnc(-c2ccc3c(c2)OCO3)n1-c1ccccc1,13.5
9,COCCCNc1nc2c(c(=O)[nH]c(=O)n2C)n1CC(O)COc1cccc(C)c1 (stereo not shown),-2.66
10,CCOc1ccc(NC(=O)c2ccc(C#CC(C)(C)O)cc2)cc1,9.67
11,Cc1ccc(/C=N/n2c(-c3ccncc3)n[nH]c2=S)s1,21.9
12,CCC(Oc1ccccc1OC)C(=O)Nc1ccc2c(c1)OCO2 (stereo not shown),-5.32
13,N#Cc1ccc(N2C(=O)[C@@H]3C(C(=O)c4cnccn4)=NN[C@@H]3C2=O)cc1,12
14,COc1ccc(CN2CCOCC2)cc1OC,3.03
15,Cc1c(NC(=O)c2ccc3nsnc3c2)cccc1[N+](=O)[O-],12.9
16,COC(=O)Nc1ccc(S(=O)(=O)NNC(=O)c2c(O)c3ccccc3n(C)c2=O)cc1,25.9
17,O=C(CN1C(=O)NC(c2ccccc2)(c2ccccc2)C1=O)NCC(=O)Nc1ccc(F)cc1,2.12
18,O=C1N=C(N2CCc3ccccc3C2)S/C1=C\c1ccc(O)cc1,-20.8
19,NNP(=O)(CC(=O)c1ccccc1)c1ccccc1 (stereo not shown),16.1
20,O=C(COC(=O)CCc1nc2ccccc2c(=O)[nH]1)Nc1ccc(Cl)cn1,3.9
21,CC(=O)N1CCc2cc(S(=O)(=O)NCCC(=O)NCCc3ccc(Cl)cc3)ccc21,-11.3
22,CC(=O)Nc1sc(C)c(C)c1C(=O)OCC(=O)Nc1cc(S(C)(=O)=O)ccc1Cl,-3.47
23,CC1CCCC(NC(=O)CCNC(=O)c2ccc(Br)cc2)C1C (stereo not shown),-0.231
24,CCS(=O)(=O)NCC(c1cccnc1)N1CCN(c2ccccc2F)CC1 (stereo not shown),-3.19
25,Cc1cccc(C(=O)N/N=C/c2cc(Br)c(Br)o2)c1,-6.14
26,COCCN(CCOC)c1nc(N)c2c(N)nc3c(c2c1C#N)CC(=O)N3Cc1ccc(Cl)cc1,-17.3
27,Cc1ccc(S(=O)(=O)[N-]c2nc3ccccc3nc2-n2cc[n+](Cc3ccccc3)c2)cc1,11
